Article PMC10868759
No constants are given. Whether binding was seen depends on the method and setting. Binding seen in cells or lysates may run through a third protein. Some binding calls cover weakened binding; strength is not graded here. Where a sequence is shown, tags or fusion partners need not be part of it. Blank lines part the entries; values can stand above or below the binder they belong to.

Columns and labels:
[1] = biological target: T1, CESA3, N-terminal YN or YC fusion (BiFC) (Arabidopsis thaliana) (UniProt Q941L0); experiment: split reporter; BiFC: N-terminal YN and YC fusions co-expressed in epidermal cells of N. benthamiana leaves, observed 3 days after infiltration by spinning-disk microscopy; CFP-N7 as transformation control
T1 sequence: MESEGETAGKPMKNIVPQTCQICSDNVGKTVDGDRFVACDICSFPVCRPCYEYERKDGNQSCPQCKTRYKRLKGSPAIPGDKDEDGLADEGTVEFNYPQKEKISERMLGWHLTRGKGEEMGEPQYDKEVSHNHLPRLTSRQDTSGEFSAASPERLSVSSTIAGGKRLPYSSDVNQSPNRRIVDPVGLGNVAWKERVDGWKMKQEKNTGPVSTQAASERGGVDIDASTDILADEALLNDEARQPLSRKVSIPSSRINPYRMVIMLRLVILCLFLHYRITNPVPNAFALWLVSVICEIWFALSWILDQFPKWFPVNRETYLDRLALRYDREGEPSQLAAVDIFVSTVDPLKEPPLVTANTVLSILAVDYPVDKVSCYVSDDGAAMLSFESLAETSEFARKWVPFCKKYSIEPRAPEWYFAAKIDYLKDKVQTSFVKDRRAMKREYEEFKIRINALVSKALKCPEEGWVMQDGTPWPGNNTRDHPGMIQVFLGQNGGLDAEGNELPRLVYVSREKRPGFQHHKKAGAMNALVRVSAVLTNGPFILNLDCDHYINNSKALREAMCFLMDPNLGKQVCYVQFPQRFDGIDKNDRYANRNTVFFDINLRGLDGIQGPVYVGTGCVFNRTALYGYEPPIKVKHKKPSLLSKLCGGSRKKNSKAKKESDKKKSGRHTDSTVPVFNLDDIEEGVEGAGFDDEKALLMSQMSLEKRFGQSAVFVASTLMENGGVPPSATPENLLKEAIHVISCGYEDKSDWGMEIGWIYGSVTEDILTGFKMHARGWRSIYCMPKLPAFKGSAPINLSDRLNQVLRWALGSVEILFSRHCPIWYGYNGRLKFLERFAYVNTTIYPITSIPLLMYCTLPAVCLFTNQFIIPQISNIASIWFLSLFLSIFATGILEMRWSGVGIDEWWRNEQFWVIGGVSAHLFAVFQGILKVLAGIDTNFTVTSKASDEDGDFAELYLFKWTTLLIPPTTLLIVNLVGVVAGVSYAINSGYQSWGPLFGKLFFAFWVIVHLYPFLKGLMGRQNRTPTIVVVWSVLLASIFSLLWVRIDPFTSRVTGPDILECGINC

[2] = biological target: T2, CESA6, N-terminal YN or YC fusion (BiFC) (Arabidopsis thaliana) (UniProt Q94JQ6); experiment: as above
T2 sequence: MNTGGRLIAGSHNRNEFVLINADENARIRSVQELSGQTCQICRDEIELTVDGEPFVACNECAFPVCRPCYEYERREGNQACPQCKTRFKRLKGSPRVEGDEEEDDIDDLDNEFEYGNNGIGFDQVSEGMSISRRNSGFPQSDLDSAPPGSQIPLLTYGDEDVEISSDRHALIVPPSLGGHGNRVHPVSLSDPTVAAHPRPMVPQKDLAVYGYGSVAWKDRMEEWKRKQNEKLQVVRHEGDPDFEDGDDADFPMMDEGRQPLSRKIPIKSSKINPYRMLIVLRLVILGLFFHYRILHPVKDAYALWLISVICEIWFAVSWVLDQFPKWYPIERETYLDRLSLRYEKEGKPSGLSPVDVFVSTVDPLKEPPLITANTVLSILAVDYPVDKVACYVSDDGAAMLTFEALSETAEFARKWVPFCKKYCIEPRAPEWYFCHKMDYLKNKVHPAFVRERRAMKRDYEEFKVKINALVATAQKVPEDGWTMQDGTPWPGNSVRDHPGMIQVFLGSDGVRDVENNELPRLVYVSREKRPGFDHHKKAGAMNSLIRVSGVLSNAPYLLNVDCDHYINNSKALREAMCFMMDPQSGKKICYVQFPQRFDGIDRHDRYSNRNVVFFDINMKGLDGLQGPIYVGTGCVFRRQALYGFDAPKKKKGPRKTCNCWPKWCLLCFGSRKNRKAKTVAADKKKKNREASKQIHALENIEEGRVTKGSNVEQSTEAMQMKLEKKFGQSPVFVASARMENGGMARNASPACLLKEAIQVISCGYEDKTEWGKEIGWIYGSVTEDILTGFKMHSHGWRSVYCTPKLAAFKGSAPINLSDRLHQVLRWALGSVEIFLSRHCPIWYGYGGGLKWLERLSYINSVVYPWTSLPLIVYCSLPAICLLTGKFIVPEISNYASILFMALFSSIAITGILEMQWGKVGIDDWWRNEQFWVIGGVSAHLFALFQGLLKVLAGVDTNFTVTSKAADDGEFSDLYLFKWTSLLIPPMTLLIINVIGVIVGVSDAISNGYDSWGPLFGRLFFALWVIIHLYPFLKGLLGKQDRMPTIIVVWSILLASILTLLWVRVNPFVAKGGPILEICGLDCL

binding [1]: binds
B1: CESA3, N-terminal YN or YC fusion (BiFC) (protein, UniProt Q941L0 1-1065)
chain: T1 sequence

binding [2]: binds
B2: CESA6, N-terminal YN or YC fusion (BiFC) (protein, UniProt Q94JQ6 1-1084)
chain: T2 sequence
